# Source: PubChem BioAssay AID1477 (National Center for Advancing Translational Sciences (NCATS), 2009)
# The campaign covered roughly 230,000 compounds. Fewer than 10 were called active. Inconclusive results, whose numbers are uncertain, are shown with a selection of clear calls. Calls follow the shape of the dose curve; as a rule, active = well fitted curve in the direction sought with a large enough effect; inconclusive = small, poorly fitted or top-dose-only effect, or effect the other way, or another doubt; inactive = no such curve, though single readings can be large or run the other way. Potencies of inconclusive entries are left out as doubtful fits.
# Biological target: Runt-related transcription factor 1 (Homo sapiens) + Core-binding factor subunit beta (Homo sapiens) (UniProt Q01196+Q13951)
# Sequence of UniProt Q01196 (Q01196 whole entry, looked up): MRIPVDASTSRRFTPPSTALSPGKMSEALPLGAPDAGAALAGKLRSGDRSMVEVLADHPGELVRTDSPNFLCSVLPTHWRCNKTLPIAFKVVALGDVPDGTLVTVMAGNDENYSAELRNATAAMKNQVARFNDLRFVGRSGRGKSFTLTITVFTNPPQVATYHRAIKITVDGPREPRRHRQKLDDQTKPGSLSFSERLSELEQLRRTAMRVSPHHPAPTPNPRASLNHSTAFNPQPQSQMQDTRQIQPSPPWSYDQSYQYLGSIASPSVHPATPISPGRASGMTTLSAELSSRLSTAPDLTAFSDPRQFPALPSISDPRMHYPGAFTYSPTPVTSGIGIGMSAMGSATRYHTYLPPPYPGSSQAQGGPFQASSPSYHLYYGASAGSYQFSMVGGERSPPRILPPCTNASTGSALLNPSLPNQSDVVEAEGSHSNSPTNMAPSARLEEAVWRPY
# Sequence of UniProt Q01196 (Q13951 whole entry, looked up): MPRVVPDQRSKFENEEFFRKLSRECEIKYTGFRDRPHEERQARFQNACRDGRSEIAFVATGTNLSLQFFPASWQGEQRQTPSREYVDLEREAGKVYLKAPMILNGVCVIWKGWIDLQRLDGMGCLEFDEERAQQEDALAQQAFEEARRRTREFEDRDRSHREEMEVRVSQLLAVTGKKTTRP
# Test: qHTS Assay for Compounds Blocking the Interaction Between CBF-beta and RUNX1 for the Treatment of Acute Myeloid Leukemia
# Settings: AlphaScreen CBFb-His/RUNX1-biotin binding, biochemical; series mostly up to 59.8 µM
# In short: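 CBF-beta (His) and RUNX1 (biotin), 30 nM each; 20 min preassociation; + compound, 15 min; + beads 50 ng each (Ni, streptavidin), 90 min; RT; AlphaScreen read.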
row,Compound,Potency
1,O=C(O)/C=C/C(O)c1ccc(Cl)cc1 (configuration not stated),inactive
2,COC(=O)c1ccc2c(c1)c(C#Cc1ccccc1)c(-c1ccccc1)n2C,"inconclusive [activator, partial curve]"
3,O=C(NCC1CCCO1)c1csc2c1CCCCC2 (configuration not stated),inactive
4,Cc1oc2ccc(OC(=O)c3cccs3)cc2c1C(=O)OC(C)C,"inconclusive [activator, single point]"
5,Cc1cccc2nc(-c3ccccc3)nc(N3CCC(O)(c4ccc(Cl)cc4)CC3)c12,inactive
6,Cc1nc(-c2ccc(C(F)(F)F)cc2)sc1C(=O)NN,inactive
7,c1cc2c3c(cccc3c1)NC1(CCC3(CC1)Nc1cccc4cccc(c14)N3)N2,"inconclusive [inhibitor, partial curve]"
8,Cc1ccc(C)c(NC(=O)c2ccccc2O)c1,inactive
9,CCCCOc1ccccc1Cn1c(=O)oc2ccc(C)cc21,"inconclusive [activator, single point]"
10,COc1ccc2c(c1O)-c1c(OC)c(OC)cc3c1[C@H](C2)N(C)CC3,"inconclusive [inhibitor, single point]"
11,O=C(O)c1cccc(-c2ccc(/C=c3/sc4nc5ccccc5n4c3=O)o2)c1,"inconclusive [inhibitor, partial curve]"
12,COc1ccc(N2CCN(C(=O)Cn3nnc(-c4ccccc4N)n3)CC2)cc1,inactive
13,O=C1SC(SCc2ccccc2)=N/C1=C\c1ccco1,"inconclusive [inhibitor, single point]"
14,CC[C@@H]1C(c2ccc(F)cc2)=NN(c2ccc(Br)cc2)[C@H]1C(=O)N1CCOC1=O,"inconclusive [activator, partial curve]"
15,Cc1c(-c2ccccc2)n[nH]c1C(=O)N=Nc1c(O)[nH]c2ccccc12,"inconclusive [inhibitor, partial curve]"
16,O=C(Oc1cccc2cccnc12)c1cccc(N2C(=O)C3C4CCC(C4)C3C2=O)c1 (configuration not stated),"inconclusive [inhibitor, partial curve]"
17,CC1=CC(C)(C)Nc2ccc(OC(=O)CN3C(=O)c4cccc5cccc(c45)C3=O)cc21,"inconclusive [inhibitor, single point]"
18,COc1ccc(-n2nc([N+](=O)[O-])c(=NCCC3=CCCCC3)n2O)cc1,"inconclusive [inhibitor, single point]"
19,O=c1nc(N/N=C/c2ccccn2)cn[nH]1,"inconclusive [inhibitor, full curve, poor fit]"
20,O=Cc1ccc2noc(-c3ccc(Cl)cc3)c2c1,inactive
21,COc1ccc(C(=O)N/N=C/c2cc3ccccc3[nH]c2=S)cc1,"inconclusive [inhibitor, partial curve]"
22,O=[N+]([O-])c1nn(-c2ccccc2)[n+]([O-])c1N1CCN(c2ccccc2F)CC1,"inconclusive [inhibitor, partial curve]"
23,COC(=O)CSc1nc(SCc2ccc(C)cc2)nc2c1CCCC2,"inconclusive [activator, partial curve]"
24,COc1ccc(N2CCN(C(=O)c3cn(C4CCCC4)c(=O)c4c3c3ccccc3n4C)CC2)cc1,"inconclusive [inhibitor, single point]"

row,Compound,Potency
1,C=C1C(=O)O[C@@H]2C3OC3(C)CC/C=C(\C)CC[C@@H]12 (some centres not stated),"inconclusive [activator, full curve]"
2,O=C(CSCc1ccccc1)N1CCN(Cc2ccc3c(c2)OCO3)CC1,inactive
3,Cc1onc(-c2c(Cl)cccc2Cl)c1-c1nnc(-c2ccc(Cl)cc2)o1,"inconclusive [activator, partial curve]"
4,Cc1ccc(-c2noc(CSc3ccccc3)n2)cc1,"inconclusive [activator, single point]"
5,COc1ccc(Cl)cc1C(=O)CSc1nnnn1C1CCCC1,inactive
6,Oc1ccc(/C=N/Nc2cc(N3CCCC3)nc(N3CCCC3)n2)cc1O,"inconclusive [inhibitor, single point]"
7,S=c1[nH]nc(-c2ccccc2)n1/N=C/c1ccc(-c2ccccc2Cl)o1,"inconclusive [inhibitor, partial curve]"
8,COc1ccc(/C=C/C(=O)Nc2nc(C)cc(C)n2)cc1OC,inactive
9,CCn1c(Nc2ccccc2Cl)nc2ccccc21,inactive
10,O=C(O)c1cc(-c2ccco2)nc2cc3ccccc3cc12,"inconclusive [inhibitor, single point]"
11,Cc1ccc(N=c2c([N+](=O)[O-])nn(-c3ccc(Cl)cc3)n2O)cc1C,"inconclusive [inhibitor, partial curve]"
12,Cc1c(Cl)cccc1NC(CC(=O)c1ccccc1)C(=O)O (configuration not stated),inactive
13,CCOc1ccc(NC(=S)NC(=O)c2c(Cl)cnn2CC)c([N+](=O)[O-])c1,"inconclusive [inhibitor, partial curve]"
14,CN(NC(=S)Nc1ccc(OC(F)F)cc1)C(=S)Nc1ccc(OC(F)F)cc1,inactive
15,CC1C[C@@]2(NC(=O)NC2=O)C(C)CN1C (some centres not stated),inactive
16,O=C(NN=C1c2ccccc2-c2ccccc21)c1ccccc1,"inconclusive [inhibitor, partial curve]"
17,CCOC(=O)/C(C#N)=C/C=C1/C=CC=CN1C,inactive
18,COc1ccc(N2CCN(C(=O)C(Cc3ccccc3)n3cccc3)CC2)cc1 (configuration not stated),"inconclusive [inhibitor, single point]"
19,N#CC1=C(N)Oc2c(ccc3cccnc23)C1c1ccncc1 (configuration not stated),"inconclusive [inhibitor, partial curve]"
20,COc1cc(/C=C(\C#N)c2nc3ccc(C)cc3[nH]2)cc([N+](=O)[O-])c1O,"inconclusive [inhibitor, partial curve]"
21,CC(=O)c1c(C)nc(C)nc1NC(=O)Cc1ccccc1,inactive
22,Cc1cc(-c2csc(NC(=O)c3ccc(=O)n(C)n3)n2)c(C)n1CC1CCCO1 (configuration not stated),"inconclusive [inhibitor, single point]"
23,O=C(OCC1OC2OC3(CCCCC3)OC2C2OC3(CCCCC3)OC12)c1ccccc1 (configuration not stated),inactive
24,CC1(C)NC(=O)N(CC(=O)OCC(=O)Nc2cc(S(=O)(=O)N3CCCCCC3)ccc2Cl)C1=O,"inconclusive [inhibitor, single point]"

row,Compound,Potency
1,Cc1ncc(CO)c(/C=N/NC(=O)c2ccc(Br)cc2)c1O,"inconclusive [inhibitor, partial curve]"
2,CN(CC(=O)Nc1ccccc1Oc1ccccc1)Cc1ccccc1F,"inconclusive [activator, single point]"
3,S=c1nc(C2COc3ccccc3O2)[nH][nH]1 (configuration not stated),"inconclusive [inhibitor, single point]"
4,Cc1ccc(CSc2sc(C(=O)c3ccccc3)c(N)c2C#N)cc1,"inconclusive [activator, single point]"
5,CCCCn1c(NC(=O)c2ccc(Br)o2)c(S(=O)(=O)c2ccccc2)c2nc3ccccc3nc21,inactive
6,CC1(C)S[C@@H]2[C@H](NC(=O)COc3ccccc3)C(=O)N2[C@H]1C(=O)O (tested in a mixture with another compound),"inconclusive [inhibitor, single point]"
7,Cc1cc(C(=O)Nc2ccc(N3CCOCC3)c(Cl)c2)c(C)o1,inactive
8,O=C(O)/C=C/c1ccccc1Oc1ccc(Cl)cc1Cl,"inconclusive [inhibitor, full curve, poor fit]"
9,CC1CCCC(NC(=O)CSc2ccc(F)cc2)C1C (configuration not stated),inactive
10,Cc1ccnc(N=Cc2nc(-c3ccccc3Br)oc2O)c1,"inconclusive [activator, partial curve]"
11,O=C(OCn1ncc(Cl)c(Cl)c1=O)c1ccccc1Cl,inactive
12,O=C(Nc1ccccc1N1CCN(c2ccccc2)CC1)c1ccccc1,inactive
13,O=C(Nc1cccnc1)c1ccc(Cl)cc1[N+](=O)[O-],"inconclusive [activator, single point]"
14,CCN(CC)CCN=Cc1c(O)n(C2CCCCCC2)c(=O)[nH]c1=O,inactive
15,CN(C)CCCNS(=O)(=O)c1ccc(N2CCC(c3ccc(Cl)cc3)=N2)cc1,"inconclusive [activator, partial curve]"
16,Cc1cccc(C(=O)N(Cc2nc3ccccc3c(=O)[nH]2)C2CCCCC2)c1,inactive
17,O=C(Nc1nnc(C2CC2)s1)c1ccc(Cl)c(S(=O)(=O)N2CCc3ccccc3C2)c1,inactive
18,N=C(CC(O)COc1ccccc1-c1ccccc1)N1CCCCC1 (configuration not stated),"inconclusive [activator, full curve]"
19,COc1cccc(C(=O)COc2ccccc2-c2ccccc2)c1,"inconclusive [activator, single point]"
20,CCn1cc(C(=O)NCc2ccccc2)c2ccccc21,"inconclusive [activator, single point]"
21,COc1ccc(-c2nnc(Nc3ccc(CC(N)=O)cc3)c3ccccc23)cc1,inactive
22,OC(CN1CCOCC1)c1ccc(F)cc1 (configuration not stated),"inconclusive [inhibitor, single point]"
23,CN(Cc1ccc(C(C)(C)C)cc1)Cc1cccc2ccccc12,"inconclusive [activator, partial curve]"
24,Cc1cc(/C=N/NC(=O)c2cccc(N(C)C)c2)c(C)n1-c1cc(C(=O)O)cc(C(=O)O)c1,"inconclusive [inhibitor, single point]"
